The target in the test is binding of gp120 to α4β7. Description: ELISA assay of gp120 binding to α4β7. Particulars: read-out: activity of inhibition of the binding of gp120 to α4β7, 1 μM gp120 and 1 μM α4β7. An excerpt:
FIG. 36: ELISA Assay. A sandwich assay was developed to screen for compounds that inhibit the binding of a4b7 to gp120. Without inhibitors, gp120 and a4b7 bind and this complex can be identified by addition of a mouse anti-gp120 mAb (step 3). This a4b7·gp120·anti-gp120 mAb complex is then sequestered on the bottom surface of a 96 welled-plate coated with an anti-mouse secondary mAb (step 4). The complex is then detected by addition of a biotinylated primary mAb against a4b7 (step 5) and detected using an HRP-avidin (step 6). A positive binding event is identified by the presence of HPR activity within each well. The addition of an inhibitor (step 2) blocks the binding between gp120 and a4b7 leading to a lack or reduction of HRP activity as shown in steps 2-5 at the bottom of the figure. […]
Recombinant human α4β7 integrin was purchased from R&D Systems (Catalog Number: 5397-A3). Larger quantities of the α4β7 integrin were by in house. […] The purity of each subunit was evaluated by SDS-PAGE analysis and both subunits were purified to over 98% purity using a SilverQuest kit (Invitrogen) for detection. […] The activity of the α4β7 integrin was determined by using the methods established by R&D Systems Inc., as given by measuring the ability of the immobilized α4β7 integrin to support the adhesion of VCAM-1 transfected Chinese hamster ovary (CHO) cells. […]

Regarding `O=C(O)C=C(C(=O)OC1C2COC(=O)c3cc(O)c(O)c(O)c3-c3c(cc(O)c(O)c3O)C(=O)OC1C(O)C(OC(=O)c1cc(O)c(O)c(O)c1)O2)C1c2c(cc(O)c(O)c2O)C(=O)OC1C(=O)O` (stereo not shown) [Repandusinic acid A], the IC50 is 1200 ± 100 nM.

The record behind these values is patent US9422527B2, “Drug target site within gp120 of HIV” (priority 2011, dated 2016).
